According to PubChem BioAssay (NCATS):
Several values for one entry are separate records, joined by “and”; a condition that tells them apart may be missing. Identical values can stand only once. Inconclusive results, whose numbers are uncertain, are shown with a selection of clear calls. A potency beside an inconclusive call is a rough fit, not a confirmed value. More than one record can exist for a structure, and the calls need not agree. Activity calls are given as the source filed them. Calls come from the whole dose curve; as a rule, active = well fitted activation curve with a large enough effect; inconclusive = small, poorly fitted or top-dose-only effect; inactive = no such curve, though single readings can be large or run the other way. Non-standard residues stand in square brackets, D forms with d. Residues, ends and D or L forms follow the SMILES beside them. *: point of attachment. Dolaproine = CO[C@@H]([C@@H]1CCCN1)[C@@H](C)C(=O)O; Dil = CC[C@H](C)[C@H](NC)[C@@H](CC(=O)O)OC; Doe = c1ccc(C[C@H](N*)c2nccs2)cc1; Aib = CC(C)(N)C(=O)O

Molecular target: Cellular tumor antigen p53 (Homo sapiens) (UniProt P04637)
Assay: Primary qHTS for small molecule compounds that upregulate eGFP-tagged delta133p53alpha (in N-terminal) cells. (AID 2060322);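 note: cells pre-induced with doxycycline then dosed without doxycycline; nearly all actives have a fitted effect of over 75% in size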;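 for activation: series mostly up to about 56 µM; 0% = DMSO vehicle and 100% = reference activator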
Conditions: NCI-H358 eGFP-delta133p53alpha fluorescence, 24 h; activation: stronger effect = higher value
Procedure, shortened: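 NCI-H358 cells pre-induced 24 h with 10 ng/ml doxycycline for eGFP-delta133p53alpha, plated dox-free and exposed 24 h at 37C to titrated compounds. Fixed, Hoechst-stained; gated GFP peak intensity by laser scanning cytometry, normalized to DMSO (0%) and 57.5 uM 5-azacytidine (100%).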
Potency is the fitted concentration of half-maximal effect; tags give direction and shape of the fitted curve.

Chain of UniProt P04637 (P04637 whole entry, looked up): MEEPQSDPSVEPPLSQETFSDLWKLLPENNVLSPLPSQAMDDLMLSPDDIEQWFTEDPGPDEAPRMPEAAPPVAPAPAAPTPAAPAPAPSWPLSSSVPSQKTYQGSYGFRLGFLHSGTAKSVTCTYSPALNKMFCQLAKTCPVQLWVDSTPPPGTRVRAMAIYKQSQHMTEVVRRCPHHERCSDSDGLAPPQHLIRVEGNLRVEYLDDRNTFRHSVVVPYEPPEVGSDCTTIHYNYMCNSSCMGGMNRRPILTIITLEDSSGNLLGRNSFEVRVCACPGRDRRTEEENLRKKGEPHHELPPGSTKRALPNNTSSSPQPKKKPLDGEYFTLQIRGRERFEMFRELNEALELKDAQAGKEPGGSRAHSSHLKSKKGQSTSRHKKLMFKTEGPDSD

| SMILES | Potency | activation |
| --- | --- | --- |
| C[C@@H]1C[C@@H](O)[C@]2(O)O[C@@H]3C[C@@]4(C=O)C(CC[C@@H]5C4CC[C@]4(C)[C@@H](C6=CC(=O)OC6)CC[C@]54O)C[C@H]3O[C@@H]2O1 (some centres not stated) | inconclusive: 0.37 µM [activator, full curve, poor fit] | – |
| CC[C@@]1(O)C(=O)OCc2c1cc1n(c2=O)Cc2cc3ccccc3nc2-1 | active: 1.09 µM and inconclusive: 9.53 µM [activator, partial curve, poor fit] | – |
| N#C[C@@H](O[C@@H]1O[C@H](CO[C@@H]2O[C@H](CO)[C@@H](O)[C@H](O)[C@H]2O)[C@@H](O)[C@H](O)[C@H]1O)c1ccccc1 | – | inactive: -19.6% |
| CCOC(=O)Nc1ccc(NCc2c(C)cc(C)cc2C)cc1N | inconclusive: 7.57 µM [activator, full curve, poor fit] | – |
| CN1CCC(c2c[nH]c3ccc(O)cc23)CC1 | – | inactive: -20.9% |
| CC[C@H](C)[C@@H]([C@@H](CC(=O)N1CCC[C@H]1[C@H](OC)[C@@H](C)C(=O)N[C@@H](Cc1ccccc1)c1nccs1)OC)N(C)C(=O)[C@@H](NC(=O)C(C)(C)N)C(C)C (H-[Aib]V[Dil][Dolaproine]-Doe) | – | inconclusive: -4.33% [activator] |
| CC1=C[C@H]2O[C@@H]3C[C@H]4OC(=O)/C=C/C=C/C(=O)OCC/C(C)=C/C(=O)OC[C@@]2(CC1)[C@]4(C)[C@]31CO1 | active: 0.0165 µM | – |
| CC(=O)O[C@@H]1[C@@H](O)[C@H]2O[C@@H]3C=C(C)[C@@H](O)C[C@]3(CO)[C@]1(C)[C@]21CO1 | active: 1.48 µM | – |
| CCC(C)C1NC(=O)C(C(C)=O)=C1O (configuration not stated) | – | inactive: 13% |
| CCCCCn1cc(C(=O)C2C(C)(C)C2(C)C)c2ccccc21 | – | inactive: -0.955% |
| CCOc1ccccc1-n1c(C(C)N2CCN(C(=O)COc3ccc(Cl)cc3)CC2)nc2ccccc2c1=O (configuration not stated) | inconclusive: 0.966 µM [activator, full curve] | – |
| Cc1sc2c(c1C)C(c1ccc(Cl)cc1)=N[C@@H](CC(=O)Nc1ccc(O)cc1)c1nnc(C)n1-2 | inconclusive: 2.03 µM [activator, single point] and inconclusive: 7.69 µM [activator, partial curve, poor fit] | – |
| CN1CCN(c2ccc([N+](=O)[O-])c3no[n+]([O-])c23)CC1 | active: 21.3 µM | – |
| COC1CC(O[C@H]2CC[C@]3(C)C4CC[C@]5(C)[C@@H](C6=CC(=O)OC6)[C@@H](OC(C)=O)C[C@]5(O)C4CC[C@@H]3C2)OC(C)C1O (some centres not stated) | inconclusive: 4.65 µM [activator, partial curve, poor fit] | – |
| COC(=O)[C@@H](N)CCCN=C(N)N[N+](=O)[O-] | – | inactive: -9.21% and inactive: -14.8% |
| OC(CNc1ccccc1)Cn1c2ccc(Br)cc2c2cc(Br)ccc21 (configuration not stated) | inconclusive: 37.9 µM [activator, single point] | – |
| CC(=O)OC[C@]12C[C@H](OC(=O)CC(C)C)C(C)=C[C@H]1O[C@@H]1[C@H](O)[C@@H](OC(C)=O)[C@@]2(C)[C@@]12CO2 | active: 0.0828 µM | – |
| [Cl-].[Cl][Pt].[NH2-].[NH2-].c1ccncc1 | – | inactive: -12% |
| CC(C)=CCC[C@]1(C)C=Cc2c(O)c3c(c(CC=C(C)C)c2O1)O[C@]12C(=C[C@@H]4CC1C(C)(C)O[C@@]2(C/C=C(/C)C(=O)O)C4=O)C3=O | inconclusive: 8.49 µM [activator, single point] | – |
| CC[C@@H]1C[C@H]2CC[C@H](O2)[C@H](C)C(=O)O[C@@H](C)C[C@@H]2CC[C@@H](O2)[C@@H](C)C(=O)O[C@H](CC)C[C@H]2CC[C@H](O2)[C@H](C)C(=O)O[C@@H](C)C[C@@H]2CC[C@@H](O2)[C@@H](C)C(=O)O1 | active: 6.3 µM | – |
| COC1CC(O[C@H]2CC[C@]3(C)C4CC[C@]5(C)[C@@H](C6=CC(=O)OC6)[C@@H](OC(C)=O)C[C@]5(O)C4CC[C@@H]3C2)OC(C)C1O[C@@H]1O[C@H](CO)[C@@H](O)[C@H](O)[C@H]1O (some centres not stated) | inconclusive: 2.24 µM [activator, partial curve, poor fit] | – |
| COC1=C[C@@H]2[C@@H]3Cc4ccc(OC)c(O)c4[C@]2(CCN3C)CC1=O | – | inconclusive: 47.9% [activator] |
